Assay results taken from PubChem BioAssay AID1508642 (National Center for Advancing Translational Sciences (NCATS), 2021).
Hit rate of the full screen: of about 43,000 compounds, about 200 (0.47%) were called active. Roughly 12% stayed inconclusive and do not appear here. Calls come from the whole dose curve; as a rule, active = well fitted cell-killing curve with a large enough effect; inconclusive = small, poorly fitted or top-dose-only effect, or effect the other way; inactive = flat fitted curve, though single readings scatter. This is one part of the list.

Assay: Cell viability qHTS assay in S16 Pmp22-F2sN cells; note: nearly all actives have a fitted effect of over 65% in size
Settings: S16 Pmp22-F2sN Schwann cells viability, CellTiter-Glo, 24 h; series mostly up to 57.5 µM; activity change, negative = cytotoxicity: at the top concentration
Outline: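 Viability was measured by CellTiter-Glo luminescence (15 min, room temperature). This followed 24 h at 37 °C of compound exposure (23 nL pin transfer) in S16 Pmp22-F2sN Schwann cells, 500-1,000 per well.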
% is set by controls: 0 for no effect and ±100 for the full control effect.

SMILES	activity change, negative = cytotoxicity
Cc1cc(C)cc(NC(=O)CN(C)S(=O)(=O)c2ccc3[nH]c4c(c3c2)CCCC4)c1	inactive: -6.26%
COCCCNC(=O)CSc1nc2ccccc2c(=O)n1Cc1ccco1	inactive: -13.8%
COc1ccc(-c2onc(C)c2C)cc1S(=O)(=O)NCc1ccc(Br)cc1	inactive: -21.3%
Cc1ccc(C)c(N2CCN(C(=O)CCS(=O)(=O)c3ccc4c(c3)CC(=O)N4C)CC2)c1	inactive: -23.2%
CCc1nnc2c(NCCc3ccc(OC)c(OC)c3)nc3ccccc3n12	inactive: 1.25%
O=C(NCCc1csc(-c2cccc(F)c2)n1)c1ccc(Br)o1	inactive: 6.59%
Cc1ccc(Cl)cc1NCc1nnc2n1CCCCC2	inactive: 6.31%
O=C1CC(c2nc(-c3cccc(Cl)c3)no2)CN1c1ccc2c(c1)OCCO2 (centres undefined)	inactive: 2.57%
O=C(Nc1ccc2c(c1)N(C1CCCC1)C(=O)c1ccccc1S2)c1cccc(F)c1	inactive: -27.5%
CC(C)Oc1ccc(CNC(=O)CCn2c(=O)c3cccn3c3ccc(F)cc32)cc1	inactive: 12.3%
COc1cccc(CNC(=O)C2CCCN(c3ncnc4onc(-c5ccc(F)cc5)c34)C2)c1 (centres undefined)	inactive: 0.504%
CC(C)OCCCNC(=O)CN1C(=O)CSc2ccc(S(=O)(=O)N3CCCCC3)cc21	inactive: -1.74%
CCOc1ccccc1CNC(=O)CCc1cn(Cc2ccc(Cl)cc2)c2ccccc12	inactive: -19.8%
CCN(C(=O)Cn1c(=O)oc2cc(S(=O)(=O)N3CCCC3)ccc21)c1cccc(C)c1	inactive: -8.08%
Cc1n[nH]c(C)c1S(=O)(=O)N(CC(=O)NCc1ccccc1Cl)c1ccc(C(C)C)cc1	inactive: -13.2%
Cc1ccc(-n2nnnc2C2CCN(S(=O)(=O)c3ccc(OC(F)(F)F)cc3)CC2)cc1	inactive: -4.42%
O=C(CCS(=O)(=O)c1cc2c(cc1Cl)NC(=O)CO2)NCCc1ccc(Cl)cc1	inactive: 6.57%
COc1ccc(NC(=O)CSc2nc(-c3ccco3)cc(C(F)(F)F)n2)c(OC)c1	inactive: 4.89%
CCCc1nn2c(=O)cc(COc3ccc(/C=C(\C#N)C(=O)Nc4ccc(F)cc4)cc3)nc2s1	inactive: 10.9%
CCN(CC)C(=O)Cn1c(SCCOc2ccc(Cl)cc2)nc2ccccc21	inactive: 5.33%
COc1ccc(NC(=O)c2ccc(CNS(=O)(=O)c3ccc4c(c3)C(C)(C)C(=O)N4C)cc2)cc1	inactive: -9.52%
CC(=O)N1c2ccccc2C(=O)C1N1CCN(c2ccc(F)cc2)CC1 (centres undefined)	inactive: 3.75%
Cc1ccc2oc(-c3cc(NC(=O)c4ccc5c(c4)OCCO5)cc(C)c3O)nc2c1	inactive: 8.33%
COc1cc(NC(=O)c2nc3ccccc3nc2C)cc(OC)c1OC	inactive: -1.42%

SMILES	activity change, negative = cytotoxicity
COc1ccc(C2C(=O)N(C3CCCCC3)CC(=O)N2CCc2ccc(OC)c(OC)c2)cc1 (centres undefined)	inactive: 14.8%
Cc1ccc(C)c(CN2C(=O)C3(c4ccccc42)N(c2cccc(C(F)(F)F)c2)C(=O)CS3(=O)=O)c1 (centres undefined)	inactive: 24%
Cc1ccccc1OCc1ccc(-c2nc(C#N)c(N3CCN(C)CC3)o2)o1	inactive: -7%
Cc1ccc(Cl)cc1N1CCN(C(=O)c2cccn3c(=O)c4cc(Cl)ccc4nc23)CC1	inactive: -3.49%
CC1=C(C(=O)OCC(C)C)C(c2ccc(OCc3ccccc3)cc2)N2C(=O)CCSC2=N1 (centres undefined)	inactive: -11.1%
Cc1ccc(-n2nc(C(=O)Nc3ccc(Cl)cn3)c3c4ccccc4n(C)c3c2=O)cc1	inactive: 9.64%
CCC(C(=O)N1CCN(c2ccccc2F)CC1)n1nc(C)c2sc3ccccc3c2c1=O (centres undefined)	inactive: 6.03%
COc1cc(CN(C(=O)c2cccc(Cl)c2)c2ccccn2)cc(OC)c1OC	inactive: -2.18%
COc1ccc(NC(=O)CCn2nc(-c3ccccc3OC)c3c(C)cc(C)nc32)cc1	inactive: 4.36%
Cc1ccc(C2CC(=O)N(Cc3ccccc3)c3c2c(C)nn3-c2nc(C)cc(C)n2)cc1 (centres undefined)	inactive: -7.64%
CC1CN(C(=O)N2CCC(C(=O)NCCC3=CCCCC3)CC2)c2cc(Cl)ccc2O1 (centres undefined)	inactive: -20.9%
COc1ccc(NC(=O)CSc2nc3ccncc3[nH]2)c(OC)c1	inactive: -11.1%
Cc1cc(NC(=O)CSc2nc3c([nH]c4ccccc43)c(=O)n2-c2ccccc2)no1	inactive: 7.5%
O=c1cc(-c2ccc(F)cc2)nc(SCc2nc(-c3cccc(Cl)c3)no2)[nH]1	inactive: -3.41%
CCc1ccc(NC(=O)CSc2nccn2-c2cccc(C)c2C)cc1	inactive: -6.83%
CCc1ccc(NC(=O)c2ccc(F)c(S(=O)(=O)N(C)C3CCCCC3)c2)cc1	inactive: -28.8%
Cc1ccc(C)n1-c1c(C(=O)NCCCN2CCN(c3ccc(F)cc3)CC2)sc2ncccc12	inactive: -3.83%
Cc1ccc2c(=O)cc(C(=O)Nc3sc4c(c3C(N)=O)CCCC4)oc2c1	inactive: -4.4%
Cc1ccc(Cl)cc1-n1ncc2c(NCCCn3ccnc3)ncnc21	inactive: -0.211%
O=C(C1CCN(S(=O)(=O)Cc2ccccc2)CC1)N1CCN(c2ccc(F)cc2)CC1	inactive: -1.6%
Cc1cc2nc(-c3ccc(OCc4ccc(F)cc4)cc3)cc(C(F)(F)F)n2n1	inactive: -3.25%
Cc1ccc(C)c(Cn2c(=O)n(Cc3ccc4c(c3)OCO4)c(=O)c3oc4ccccc4c32)c1	inactive: -3.37%
CCCCOc1ccc(C(=O)NCCc2sc(-c3cccc(F)c3)nc2C)cc1	inactive: -5.81%
O=C(Nc1ccc(NC(=O)c2cccs2)cc1)c1cccc(Br)c1	inactive: 10.2%

SMILES	activity change, negative = cytotoxicity
CCc1cccc(NC(=O)c2cnc(SC)nc2-c2ccccc2)c1	inactive: -7.4%
Cc1nc2sc(C(=O)Nc3ccc(F)cc3)c(N)c2c(-c2ccc(Br)cc2)c1C(=O)Nc1ccc(Cl)cc1	inactive: -12.7%
CCOc1ccc(/C=C/c2nc(C#N)c(NC(C)CC)o2)cc1 (centres undefined)	inactive: 0.632%
CCOc1ccc(Sc2cc(C(=O)NC(C)CC)c3ccccc3n2)cc1 (centres undefined)	inactive: 11.2%
COc1ccc(N2CCN(S(=O)(=O)c3ccc(OC)c(-c4noc(C)n4)c3)CC2)cc1	inactive: -6.17%
O=C(Cn1ncc2c3ccccc3n(Cc3ccc(Cl)cc3)c2c1=O)NCc1cccs1	inactive: 5.41%
COc1ccc(-c2cn3nc(N4CCC(C(=O)Nc5cccc(OC)c5)CC4)sc3n2)cc1	inactive: -1.16%
CCOc1ccccc1NC(=O)C(C)Sc1nc(-c2ccccc2)c(C#N)c(=O)[nH]1 (centres undefined)	inactive: -0.849%
N#Cc1ccccc1Cn1c(=O)n(CCCCC(=O)NCc2ccc3c(c2)OCO3)c(=O)c2ccccc21	inactive: 6.35%
Cc1ccccc1C(=O)Nc1nnc(S(=O)(=O)N(C)Cc2ccc(Cl)cc2)s1	inactive: 10.7%
O=C(Cc1ccc(F)cc1)N1CCC(c2nc3c(nnn3Cc3ccc(F)cc3)c(=O)[nH]2)CC1	inactive: 3.59%
CCCn1c(=O)c2sccc2n2c(CCCC(=O)Nc3ccccc3OCC)nnc12	inactive: 5.75%
COc1ccc(CC(=O)N2CC(=O)Nc3ccc(Br)cc3C2c2ccc(F)cc2)cc1 (centres undefined)	inactive: -24.5%
Cc1ccc(CN(C(=O)COc2ccc(C(C)C)cc2)C2CCS(=O)(=O)C2)o1 (centres undefined)	inactive: -20.9%
O=C(CCSCc1ccccc1F)N1CCN(c2ccc(Cl)cc2)CC1	inactive: 9.87%
COc1ccc(-c2nc3ccccc3o2)cc1NC(=O)CSc1ccc(Cl)cc1	inactive: 0.435%
COc1ccc(CC(=O)Nc2c(C(=O)Nc3ccc(F)cc3)oc3ccccc23)cc1OC	inactive: 15.8%
COc1ccc(OC)c(CCNC(=O)CN2C(=O)COc3ccc(S(=O)(=O)N4CCC(C)CC4)cc32)c1	inactive: -10.8%
COc1ccc(-n2c(/C=C/c3cccc4ccccc34)nc3ccccc3c2=O)cc1Cl	inactive: -21.5%
CCCN1CCN(CCNC(=O)Nc2cc(C)ccc2OC)CC1	inactive: 5.56%
COc1cc2c(C(=O)Nc3ccc(C)cc3Br)cn(C)c(=O)c2cc1OC	inactive: -3.36%
CCOC(=O)c1ccc(NC2=CC(c3ccc(O)c(OCC)c3)N(c3ccc(C(=O)OCC)cc3)C2=O)cc1 (centres undefined)	inactive: 7.56%
CCC1CCCCN1CCCNC(=O)c1c(O)nc2c(C)cccn2c1=O (centres undefined)	inactive: 23.8%
COc1ccccc1NC(=O)Cn1c(=O)n(CCc2ccccc2)c(=O)c2c3c(sc21)CN(C(C)=O)CC3	inactive: -11.8%

SMILES	activity change, negative = cytotoxicity
COc1ccc(CNC(=O)CSc2ncc3c(n2)-c2cc(Cl)ccc2N(Cc2ccccc2)S3(=O)=O)cc1OC	inactive: 7.85%
Cc1ccc(S(=O)(=O)N2CCc3cc(C(=O)Nc4ccc(C)c(C)c4)ccc32)cc1	inactive: -11.8%
CCC(=O)OCc1cnc(C)c2oc(=O)c(C(=O)Nc3ccccc3C(F)(F)F)cc12	inactive: 3%
COc1cc2ccccc2cc1C(=O)Nc1cc(-c2nc3ccccc3o2)ccc1C	inactive: 12%
Cc1cccc(N(C)C(=O)CN(C)S(=O)(=O)c2ccc3[nH]c4c(c3c2)CCCC4)c1	inactive: -23.8%
O=C(c1ccccc1)n1nc(-c2ccco2)nc1NCc1cccs1	inactive: 0.403%
Cc1c(C(=O)OCC2CCCCC2)[nH]c2c1C(=O)CC(c1ccc(Cl)cc1)C2 (centres undefined)	inactive: 6.75%
Cc1cccc(NC(=O)CSc2nc(C3CCCC3)nc3c2c(=O)n(C)c(=O)n3C)c1C	inactive: 5.92%
Cc1nnsc1C(=O)Oc1ccc(C(C)C)cc1	inactive: 8.4%
CCN(CC)C(=O)c1sc2c(c1C)c(=O)n(-c1ccc(C)c(C)c1)c(=O)n2Cc1cc(=O)n2c(C)cccc2n1	inactive: -11.6%
COc1ccc2c(c1)-c1nc(NC(=O)c3ccccc3F)sc1CC2	inactive: -25%
CCn1c(=O)cc(OCC(=O)NCc2ccccc2Cl)c2ccccc21	inactive: 4.12%
Cc1ccc(C(=O)Nc2ccc(C(=O)OCc3cc(=O)n4ccsc4n3)cc2)cc1	inactive: 7.53%
O=C(Nc1nnc(S(=O)(=O)N2CCN(c3ccc(F)cc3)CC2)s1)c1ccc(Cl)cc1	inactive: -3.94%
COc1ccc(C)cc1NC(=O)C(=O)NCC1(c2ccccc2)CCCC1	inactive: -22.3%
CCCCSCCCNC(=O)CN1C(=O)COc2ccc(S(=O)(=O)N3CCC(C)CC3)cc21	inactive: 9.83%
Cc1ccc(Cl)cc1NC(=O)COCc1cc(-c2ccco2)on1	inactive: -13.4%
O=C(CNC(=O)c1ccc(Cl)cc1)OCc1cc(=O)n2ccsc2n1	inactive: -0.76%
COc1ccc(-c2[nH]c3c(c2-c2c(-n4cccc4)n(C)c(=O)n(C)c2=O)c(=O)n(C)c(=O)n3C)cc1	inactive: -1.23%
Cc1ccc(NC(=O)Cn2c(CCC(=O)O)ccc2-c2ccc(Cl)cc2)cc1	inactive: -12.6%
COc1ccccc1N1CCN(c2ncnc3c2nc2n3CCCC2)CC1	inactive: -17%
COC(=O)c1ccc(NC(=O)Cn2nc(C(=O)Nc3ccc(C)cc3)ccc2=O)cc1	inactive: 2.97%
